Reference: the supplement of paper PMC3334620
Whole data set: some 33,000 sequences, median “E-score (-0.5 to 0.5)” near -0.017, cut for the highest 2% near 0.3. The list shows a part of the results.

biological target: T1, Sut1 (UniProt P53032); assay: PBM E-score (8-mer binding enrichment) (E-score (-0.5 to 0.5)); higher = stronger / more preferred TF binding; most listed sequences are background and not binding sites; details: protein concentration: 200 nM; construct: GST-full length
T1 sequence: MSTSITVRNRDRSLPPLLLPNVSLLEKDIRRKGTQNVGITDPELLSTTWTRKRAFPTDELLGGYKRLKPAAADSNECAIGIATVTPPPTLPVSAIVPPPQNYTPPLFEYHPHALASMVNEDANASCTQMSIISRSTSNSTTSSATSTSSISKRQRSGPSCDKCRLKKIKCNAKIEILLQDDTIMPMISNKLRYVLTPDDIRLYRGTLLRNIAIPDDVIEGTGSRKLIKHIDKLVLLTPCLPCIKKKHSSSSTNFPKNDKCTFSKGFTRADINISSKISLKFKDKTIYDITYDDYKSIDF
In short: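 Using PURExpress in vitro transcription/translation, GST-tagged yeast transcription factors were made in full-length or DNA-binding-domain form. These were applied at about 100-200 nM to double-stranded universal all-10-mer Agilent arrays, and bound protein was detected with fluorescent anti-GST. Scans were normalised with masliner before the Universal PBM Analysis Suite assigned E-scores to ungapped eight-base words pooled with their reverse complements.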

Row | Sequence | PBM E-score
1 | TTGTAAAA | 0.134
2 | ACATCGAG | -0.206
3 | ACAGAAAT | 0.172
4 | TCGAAGAA | 0.0128
5 | CCCAGTAA | 0.0903
6 | ACCTGTAA | 0.092
7 | AGGCTCAT | -0.164
8 | ACCAGAAA | 0.107
9 | AAGTGCAT | -0.0225
10 | ACTATCTG | -0.188
11 | CCCTCCAA | -0.311
12 | AAGTTAGA | 0.124
13 | ACAAGGAG | 0.0941
14 | ATTCGCAG | 0.0734
15 | ACAAGATG | -0.13
16 | CTTAAAAG | -0.0247
17 | TAATCCGA | 0.15
18 | CGAGATAG | -0.203
19 | CCATACAC | -0.0321
20 | AAGCCACG | -0.136
21 | AGCGCGAG | -0.12
22 | AACGGCTG | -0.0244
23 | AAATTGGC | 0.022
24 | ATCACGTA | 0.0676
25 | GCCACACC | -0.144

Row | Sequence | PBM E-score
26 | ATTTGTAG | 0.173
27 | GCACGTCA | -0.189
28 | CCTACAAC | 0.0308
29 | ATGATTTG | 0.0236
30 | CATGTTAG | -0.115
31 | AGCCGGCA | 0.0847
32 | AGCCAACA | -0.00424
33 | ATCTCAGG | -0.0305
34 | AGAGCGAT | -0.232
35 | ACGCGTGC | -0.0211
36 | AGGGTGGG | -0.257
37 | ACCAAAGC | 0.0336
38 | CACTTTGA | -0.0703
39 | TAGGCATA | -0.0382
40 | GCATTGGC | -0.247
41 | GCAATGTA | -0.0868
42 | ACCCCTGC | -0.277
43 | CGAATTTA | 0.163
44 | AAGCGCCT | 0.0123
45 | GAGGGCCC | -0.227
46 | GCCTGCCC | -0.204
47 | TATTATGA | 0.14
48 | CTGAGTTA | -0.126
49 | AACCGCGG | 0.191
50 | ATTGGATC | 0.0622

Row | Sequence | PBM E-score
51 | CGGGAGGC | -0.343
52 | ACTAATCC | -0.0921
53 | TGGTACAA | -0.0495
54 | CTCACGAA | -0.0346
55 | AAATTGAA | 0.164
56 | AGGAGGGG | -0.312
57 | GCACATTA | 0.0689
58 | AACTCGCA | -0.0368
59 | AAGAGAAC | 0.145
60 | CCTAGCCA | -0.0454
61 | ATATGGGA | -0.0229
62 | CCATGGAG | -0.174
63 | CAAAGAAG | 0.0747
64 | AGCGGGTC | -0.382
65 | GACAGAAA | 0.0406
66 | GACAGCAC | 0.0796
67 | AGGCAGGA | -0.157
68 | GTGCCGAA | 0.0728
69 | CGCAGCAG | -0.118
70 | AGTTGTAC | 0.0803
71 | CGAGAGTC | 0.00333
72 | AAGAACAG | 0.0328
73 | ATCTGTCC | -0.124
74 | AAGGAAAT | 0.0288
75 | CGGCTTAC | -0.085

Row | Sequence | PBM E-score
76 | ACTCCTCT | 0.0793
77 | CATACTAA | 0.0669
78 | CTGGGCAC | -0.224
79 | CTATTCTC | 0.0613
80 | ACTGATAA | 0.255
81 | CCGACGTC | 0.106
82 | TAGAGATA | 0.106
83 | AACCCCGT | 0.283
84 | ACACTTAA | 0.17
85 | ATGTAGGG | -0.0734
86 | CTTGCTAC | -0.169
87 | ACTGGATA | 0.228
88 | AGTTAATG | 0.193
89 | ACGTGGTC | -0.214
90 | CCCACGCA | -0.19
91 | ATTAATCC | 0.153
92 | TCTGCTAA | -0.0838
93 | CATCGCGC | -0.113
94 | AATAATAG | 0.157
95 | GCCTACGC | -0.161
96 | CTCGCAAC | -0.0447
97 | CAAAAAAG | 0.105
98 | ACGTGGTA | -0.02
99 | AAAGTATG | 0.0484
100 | GATACCAA | 0.0117

Row | Sequence | PBM E-score
101 | CTTGACGA | -0.15
102 | CGAGTCGA | -0.0446
103 | TCGTTTCA | 0.182
104 | CGGGAGAG | -0.0788
105 | ACATTGCC | -0.128
106 | GATACTCC | 0.148
107 | AGCGAATC | 0.078
108 | AAACAGTC | -0.179
109 | CAGTATAA | 0.179
110 | GCCTAGAC | -0.146
111 | CACGACAG | -0.038
112 | GCCTATTA | 0.0384
113 | CCCTGGAC | -0.176
114 | AATTCTCC | 0.244
115 | CATGAACA | 0.0319
116 | ACAGACGT | -0.113
117 | GCCACCCC | -0.354
118 | CATTGATA | 0.139
119 | TGAAGTCA | -0.161
120 | CACATATA | 0.07
121 | AATATTGG | 0.113
122 | CGGATGCC | 0.0144
123 | AGCCCGTC | -0.334
124 | AAAACGAA | 0.234
125 | AATGGTTG | 0.0702

Row | Sequence | PBM E-score
126 | ATTCGCAC | 0.0557
127 | CGTTAGAC | -0.117
128 | AGTATGAG | -0.0279
129 | CAAACTCG | -0.013
130 | AGGCCGCG | -0.199
131 | GAACGGAA | 0.166
132 | CAAATGAG | 0.0597
133 | ACCGGAAT | 0.204
134 | GATAGAGA | 0.101
135 | AGGTGCGG | 0.0805
136 | TATATAGA | 0.278
137 | AAGACAGA | 0.146
138 | AAACATTT | 0.222
139 | GGTGCACA | -0.261
140 | ATCGAAAG | 0.113
141 | ACGTGGCG | -0.258
142 | ATGCTCTC | -0.0653
143 | CTTAAGGA | 0.0985
144 | GTTCGAAC | 0.187
145 | AGTCGAAG | -0.117
146 | CTACGGGA | -0.196
147 | ATACCCGC | -0.104
148 | ACCTCGCT | -0.0849
149 | AGGAACCC | -0.246
150 | CCTATTTA | 0.137

Row | Sequence | PBM E-score
151 | ACCGCACT | -0.0137
152 | CAACAGGA | -0.18
153 | AATAACAG | 0.0803
154 | CTGACCCA | -0.26
155 | CGCTCTTA | 0.159
156 | GCGGCACC | -0.0756
157 | GCAAGTTA | 0.076
158 | GCTGCGAC | -0.199
159 | CCCGTTGC | -0.105
160 | TGTGCACA | -0.101
161 | CCGTTAGA | 0.251
162 | GCAGACGA | -0.0356
163 | ATACGACG | 0.151
164 | CAACGTAG | -0.081
165 | AAGTTAGC | 0.11
166 | ATATTCCG | 0.221
167 | CGCGGAGC | 0.26
168 | GGTTTGAA | 0.233
169 | CATAGTGC | 0.115
170 | GTCCGAAA | 0.447
171 | ACACCCGT | -0.212
172 | GGGCTATA | -0.139
